# Screen size: about 140,000 compounds; about 240 (0.17%) were called active. Inconclusive means that the source gave no clear call. Such entries were picked first, then a sample of the others. Calls follow the shape of the dose curve; as a rule, active = well fitted inhibition curve with a large enough effect; inconclusive = small, poorly fitted or top-dose-only effect; inactive = no such curve, though single readings can be large or run the other way. Potencies of inconclusive entries are doubtful fits and often do not repeat.
# Assay: Primary qHTS assay for inhibitors of alpha-synuclein gene (SNCA) expression; also: nearly all actives have a fitted effect of over 45% in size
# Settings: HEK-293 SNCA-luciferase knock-in, luminescence, 24 h; series mostly up to 57.2 µM
# Potency is read from the fitted curve at half-maximal effect; tags tell the direction and shape of the fitted curve.
row,SMILES,Potency
1,Cc1ccccc1-c1noc(-c2ccc(NC3CCCC3)c([N+](=O)[O-])c2)n1,"inconclusive: 7.08 µM [inhibitor, single point]"
2,Cc1nc2n(n1)C(C(=O)Nc1ccccc1C)CC(=O)N2 (stereo unspecified),"inconclusive: 44.7 µM [inhibitor, single point]"
3,COc1ccc(C(=O)CC2(O)C(=O)N(CCc3ccccc3)c3ccc(Br)cc32)cc1OC (stereo unspecified),"inconclusive: 35.5 µM [inhibitor, partial curve, poor fit]"
4,C[C@@H]1C(=O)O[C@H]2[C@H]1CC[C@@]1(C)Cc3sc(NC(=O)CCC(=O)O)nc3[C@@H](C)[C@H]21,"inconclusive: 0.794 µM [inhibitor, full curve, poor fit]"
5,CN(Cc1ccc(-n2cccn2)cc1)C(=O)c1ccccc1C1CCNC1 (stereo unspecified),"inconclusive: 3.55 µM [inhibitor, single point]"
6,Cc1ccc(N2C(=S)N[C@H]3[C@@H](O)[C@H](O)C[C@@H](C(=O)N4CCCCC4)[C@H]32)cc1,"inconclusive: 2.82 µM [inhibitor, full curve, poor fit]"
7,COc1ccc(S(=O)(=O)N2CCC(c3nnnn3-c3ccccc3)CC2)cc1OC,"inconclusive: 44.7 µM [inhibitor, single point]"
8,COc1ccc(C(=O)N2C[C@@H](Oc3cccnc3)C[C@H]2C(N)=O)c(OC)n1,"inconclusive: 8.91 µM [inhibitor, single point]"
9,CCS(=O)(=O)Nc1ccc(C2(C(=O)NCc3cccnc3)CCCCC2)cc1,"inconclusive: 17.8 µM [inhibitor, single point]"
10,Cc1nc(C(=O)N2CC[C@H](NC(=O)c3cnccn3)C[C@H]2C(=O)N[C@@H](Cc2cccs2)C(N)=O)cs1,"inconclusive: 1.58 µM [inhibitor, full curve]"
11,Cc1ccc(C(=O)c2cn(Cc3ccccc3)c3cc4c(cc3c2=O)OCCO4)cc1,"inconclusive: 39.8 µM [inhibitor, single point]"
12,CCCN(Cc1ccncc1)C(=O)c1cnc(-c2ccccn2)[nH]c1=O,"inconclusive: 20 µM [inhibitor, partial curve, poor fit]"
13,CNC(=O)[C@@H]1CN(C(=O)c2ccc(OC)c(F)c2)C[C@H]1COC,"inconclusive: 12.6 µM [inhibitor, single point]"
14,O=C(c1cc(-c2ccc(O)cc2)n[nH]1)N1CCCC(CCc2ccc(F)cc2)C1 (stereo unspecified),"inconclusive: 12.6 µM [inhibitor, partial curve, poor fit]"
15,O=C(COc1ccc(Cl)cc1)N(Cc1ccco1)c1ccccn1,"inconclusive: 28.2 µM [inhibitor, partial curve, poor fit]"
16,O=C(NC1CCCC1)c1ccc(CSc2nc3cccnc3n2Cc2ccccc2F)cc1,"inconclusive: 39.8 µM [inhibitor, single point]"
17,CC1CCCN(Cc2c(O)ccc3c(=O)c(-c4ccccc4Cl)c(C(F)(F)F)oc23)C1 (stereo unspecified),"inconclusive: 2 µM [inhibitor, full curve]"
18,O=C(Cn1c(-c2cccs2)cc2ccccc21)NCCCN1CCN(c2ccc(F)cc2)CC1,"inconclusive: 14.1 µM [inhibitor, single point]"
19,O=C(C1CCC(=O)N(C2CCCCCC2)C1)N1Cc2ccccc2C1 (stereo unspecified),"inconclusive: 1.78 µM [inhibitor, partial curve, poor fit]"
20,CCN(C(=O)C1CCC(CNS(=O)(=O)c2cccc3nsnc23)CC1)c1ccccc1 (stereo unspecified),"inconclusive: 15.8 µM [inhibitor, partial curve, poor fit]"
21,O=C(CC1CCCC1)N1CCCCCC1CN1CCCC1 (stereo unspecified),"inconclusive: 2.51 µM [inhibitor, partial curve, poor fit]"

row,SMILES,Potency
1,Cc1ccc(S(=O)(=O)N(CC(O)Cn2c3ccccc3c3ccccc32)c2cccc(C(=O)N(C)C)c2)cc1 (stereo unspecified),"inconclusive: 17.8 µM [inhibitor, single point]"
2,COc1ccc(C(=O)NCC(c2ccc3c(c2)OCO3)N2CCOCC2)cc1 (stereo unspecified),"inconclusive: 2.82 µM [inhibitor, partial curve, poor fit]"
3,COc1ccc(NC(=O)CN2C(=O)COc3ccc(C(=O)COc4cccc(F)c4)cc32)cc1,inactive
4,CC1CCN(C(=O)C[C@@H]2c3nc(NC(=O)c4ccco4)sc3C[C@@H]3[C@](C)(CO)[C@H](O)CC[C@]32C)CC1,inactive
5,O=C1CC2(CCN(C(=O)C3CCCN(C(=O)C4CCCC4)C3)CC2)Oc2ccccc2N1 (stereo unspecified),inactive
6,O=C(Nc1ccc(Br)cc1)N1CCC(CN2CCCC2)CC1,"inconclusive: 39.8 µM [inhibitor, single point]"
7,CCOc1ccc(NC(=O)CN(Cc2ccccc2)S(=O)(=O)c2ccc(Cl)cc2)cc1,inactive
8,Cc1cc(C)cc(NS(=O)(=O)c2ccc3c(c2)OCC(C(=O)N2CCCC2)O3)c1 (stereo unspecified),"inconclusive: 35.5 µM [inhibitor, single point]"
9,COc1ccc2nc3oc(C(=O)Nc4cccc(C(F)(F)F)c4)cc3cc2c1,"inconclusive: 7.08 µM [inhibitor, full curve]"
10,Cc1noc(C)c1S(=O)(=O)N1CCn2ncc(C(=O)Nc3ccc(Cl)cc3Cl)c2C1,"inconclusive: 17.8 µM [inhibitor, partial curve, poor fit]"
11,Cc1ccc(C2Cn3nnc(-c4noc(-c5ccc(C)s5)n4)c3CO2)cc1 (stereo unspecified),inactive
12,CN(C(=O)c1ccc(F)cc1)C1CCCc2ccccc21 (stereo unspecified),inactive
13,O=C(c1ccc2c(c1)N(Cc1ccc(F)cc1)CCS2)N1CCN(c2ccccc2)CC1,"inconclusive: 39.8 µM [inhibitor, single point]"
14,O=C(C1CC(=O)N(C2CC2)C1)N1CCC(Oc2cccnc2)CC1 (stereo unspecified),"inconclusive: 12.6 µM [inhibitor, partial curve]"
15,COc1nccnc1NC1CCN(C(=O)COc2ccc(C)cc2)CC1,inactive
16,CCC1CCCCN1CCCNC(=O)c1ccc2c(c1)N(Cc1ccccc1F)C(=O)c1ccccc1S2(=O)=O (stereo unspecified),"inconclusive: 0.178 µM [inhibitor, full curve, poor fit]"
17,Cc1ccc(C)c(NC(=O)CCc2nc(-c3ccc(C(C)(C)C)cc3)no2)c1,"inconclusive: 31.6 µM [inhibitor, single point]"
18,CC(C)C(=O)N1CCCCCCNC(=O)[C@@H]2C[C@@H](C(=O)N3CCN(c4ccccn4)CC3)C[C@@H]21,inactive
19,O=C(CSc1nc(-c2ccccc2)[nH]c1-c1ccccc1)Nc1ccc2c(c1)OCO2,"inconclusive: 39.8 µM [inhibitor, single point]"
20,CN(C)CCNC(=O)c1cccc2c1CCN2C(=O)Nc1ccccc1,"inconclusive: 39.8 µM [inhibitor, single point]"
21,O=[N+]([O-])c1cc(-c2nc(-c3ccccc3)no2)ccc1N1CCCC1,"inconclusive: 8.91 µM [inhibitor, full curve, poor fit]"

row,SMILES,Potency
1,Cc1ccc(-c2ccc3nnc(CNC(=O)c4cc(F)ccc4F)n3n2)cc1,inactive
2,O=C(Cn1c(=O)n(-c2ccc(Cl)cc2)c(=O)c2c3c(sc21)CCC3)c1ccc(F)cc1,active: 20 µM
3,Fc1ccc(Nc2nc3nonc3nc2Nc2cccc(C(F)(F)F)c2)cc1,"inconclusive: 3.98 µM [inhibitor, full curve]"
4,COc1ccccc1Cn1c(CNS(=O)(=O)c2ccc3c(c2)CCCC3)nc2cccnc21,"inconclusive: 10 µM [inhibitor, partial curve, poor fit]"
5,O=C(c1ccco1)N1CCC2(CC1)CN(c1ccccc1)C2,"inconclusive: 20 µM [inhibitor, single point]"
6,O=C(c1cccc(Br)c1)N1CCC([C@@H]2CNC[C@H]2CO)CC1,"inconclusive: 39.8 µM [inhibitor, single point]"
7,Cc1ccc(C2NC(=O)N(CC(=O)Nc3ccc(F)c(F)c3)C3=C2C(=O)OC3)cc1 (stereo unspecified),"inconclusive: 7.08 µM [inhibitor, partial curve, poor fit]"
8,Clc1ccc(-c2cnc([C@@H]3COCCN3C3CCCCC3)[nH]2)s1,"inconclusive: 39.8 µM [inhibitor, single point]"
9,COc1ccc(-c2cc(N3CCCN(C(=O)c4ccc5[nH]ccc5c4)CC3)n[nH]2)cc1,"inconclusive: 3.98 µM [inhibitor, partial curve, poor fit]"
10,CCN(CC)CCCNC(=O)c1ccc2c(c1)N(Cc1c(F)cccc1Cl)C(=O)c1ccccc1S2,"inconclusive: 39.8 µM [inhibitor, single point]"
11,CCOc1ccccc1NC(=O)Cn1cccc1-c1nc(-c2ccc(F)cc2)no1,inactive
12,COc1ccc(F)cc1S(=O)(=O)N1CCCC(Cn2c(C)nc3cccnc32)C1 (stereo unspecified),inactive
13,O=C(CCc1ccccc1)NCC(=O)N1CCN(c2ccccn2)CC1,inactive
14,COc1ccc(Cc2nc3nccc(-c4ccc5c(c4)OCCCO5)n3n2)cc1,inactive
15,Cn1ncc2c(C(=O)Nc3cccc(Cl)c3)cc(C(C)(C)C)nc21,"inconclusive: 22.4 µM [inhibitor, single point]"
16,CC(C)c1ccc(NC(=O)C2CCN(C(=O)c3ncn4c3COC(c3ccccc3)C4)CC2)cc1 (stereo unspecified),inactive
17,CC1(c2ccccc2)N(Cc2ccccc2C#N)C(=O)OC12CCN(Cc1c[nH]c3ccccc13)CC2 (stereo unspecified),"inconclusive: 35.5 µM [inhibitor, single point]"
18,O=C(c1ccccc1)N1CCN(C(=O)c2nnn3c2COC(c2ccc(Cl)cc2)C3)CC1 (stereo unspecified),inactive
19,COCCCNC(=O)c1cn2ccnc(-c3ccc(OC)cc3)c2n1,inactive
